# This is one part of the list.
# B1: SBD-G4S3-Fc (protein)
# chain: MASIPSSASVQLDSYNYDGSTFSGKIYVKNIAYSKKVTVVYADGSDNWNNNGNIIAASFSGPISGSNYEYWTFSASVKGIKEFYIKYEVSGKTYYDNNNSANYQVSTGGGGSGGGGSGGGGSEFVPRDCGCKPCICTVPEVSSVFIFPPKPKDVLTITLTPKVTCVVVDISKDDPEVQFSWFVDDVEVHTAQTQPREEQFNSTFRSVSELPIMHQDWLNGKEFKCRVNSAAFPAPIEKTISKTKGRPKAPQVYTIPPPKEQMAKDKVSLTCMITDFFPEDITVEWQWNGQPAENYKNTQPIMDTDGSYFVYSKLNVQKSNWEAGNTFTCSVLHEGLHNHHTEKSLSHSPGAA
# How the values were obtained:
# Assay in all cases: glycan array binding signal (z-score within array); higher = stronger binding
# Conditions in all cases: glycan notation: IUPAC condensed, linker removed
# [1] = target: Gal(a1-3)[Gal(a1-4)]Gal(b1-4)GlcNAc
# How it was run: (§1)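 Glycan array data were curated from 3228 arrays in the Consortium for Functional Glycomics database and kept only where the protein sequence was available. Glycan names were converted to IUPAC-condensed notation, and columns mapping to the same glycan were averaged. The binding signal is a within-array Z-score, averaged across arrays of the same protein sequence at different concentrations or buffers and across linkers. Negative Z-scores can be read as non-binding.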
# [2] = target: Gal(a1-4)Gal(b1-3)GlcNAc(b1-2)Man(a1-3)[Gal(a1-4)Gal(b1-3)GlcNAc(b1-2)Man(a1-6)]Man(b1-4)GlcNAc(b1-4)GlcNAc
# How it was run: as §1
# [3] = target: Gal(a1-4)Gal(b1-4)Glc
# How it was run: as §1
# [4] = target: Gal(a1-4)Gal(b1-4)GlcNAc
# How it was run: as §1
# [5] = target: Gal(a1-4)Gal(b1-4)GlcNAc(b1-2)Man(a1-3)[Gal(a1-4)Gal(b1-4)GlcNAc(b1-2)Man(a1-6)]Man(b1-4)GlcNAc(b1-4)GlcNAc
# How it was run: as §1
# [6] = target: Gal(a1-4)Gal(b1-4)GlcNAc(b1-3)Gal(b1-4)Glc
# How it was run: as §1
# [7] = target: Gal(a1-4)GlcNAc
# How it was run: as §1
# [8] = target: Gal(a1-6)Glc
# How it was run: as §1
# [9] = target: Gal(b1-2)Gal
# How it was run: as §1
# [10] = target: Gal(b1-3)Gal
# How it was run: as §1
# [11] = target: Gal(b1-3)Gal(b1-4)GlcNAc
# How it was run: as §1
# [12] = target: Gal(b1-3)GalNAc
# How it was run: as §1
# [13] = target: Gal(b1-3)GalNAc(a1-3)[Fuc(a1-2)]Gal(b1-4)Glc
# How it was run: as §1
# [14] = target: Gal(b1-3)GalNAc(a1-3)[Fuc(a1-2)]Gal(b1-4)GlcNAc
# How it was run: as §1
# [15] = target: Gal(b1-3)GalNAc(b1-3)Gal
# How it was run: as §1
# [16] = target: Gal(b1-3)GalNAc(b1-3)Gal(a1-4)Gal(b1-4)Glc
# How it was run: as §1
# [17] = target: Gal(b1-3)GalNAc(b1-4)Gal(b1-4)Glc
# How it was run: as §1
# [18] = target: Gal(b1-3)GalNAc(b1-4)[Neu5Ac(a2-3)]Gal(b1-4)Glc
# How it was run: as §1
# [19] = target: Gal(b1-3)GlcNAc
# How it was run: as §1
# [20] = target: Gal(b1-3)GlcNAc(a1-3)Gal(b1-4)GlcNAc
# How it was run: as §1
# [21] = target: Gal(b1-3)GlcNAc(a1-6)Gal(b1-4)GlcNAc
# How it was run: as §1
# [22] = target: Gal(b1-3)GlcNAc(b1-2)Man
# How it was run: as §1
# [23] = target: Gal(b1-3)GlcNAc(b1-2)Man(a1-3)[Gal(b1-3)GlcNAc(b1-2)Man(a1-6)]Man(b1-4)GlcNAc(b1-4)GlcNAc
# How it was run: as §1
# [24] = target: Gal(b1-3)GlcNAc(b1-2)Man(a1-3)[Gal(b1-3)GlcNAc(b1-2)Man(a1-6)]Man(b1-4)GlcNAc(b1-4)[Fuc(a1-6)]GlcNAc
# How it was run: as §1
# [25] = target: Gal(b1-3)GlcNAc(b1-2)Man(a1-3)[GlcNAc(b1-4)][Gal(b1-3)GlcNAc(b1-2)Man(a1-6)]Man(b1-4)GlcNAc(b1-4)GlcNAc
# How it was run: as §1
# [26] = target: Gal(b1-3)GlcNAc(b1-2)[Gal(b1-3)GlcNAc(b1-6)]Man(a1-6)[Gal(b1-3)GlcNAc(b1-2)Man(a1-3)]Man(b1-4)GlcNAc(b1-4)GlcNAc
# How it was run: as §1
# [27] = target: Gal(b1-3)GlcNAc(b1-3)Gal(b1-3)GlcNAc
# How it was run: as §1
# [28] = target: Gal(b1-3)GlcNAc(b1-3)Gal(b1-4)Glc
# How it was run: as §1
# [29] = target: Gal(b1-3)GlcNAc(b1-3)Gal(b1-4)GlcNAc
# How it was run: as §1
# [30] = target: Gal(b1-3)GlcNAc(b1-3)Gal(b1-4)GlcNAc(b1-2)Man(a1-3)[Gal(b1-3)GlcNAc(b1-3)Gal(b1-4)GlcNAc(b1-2)Man(a1-6)]Man(b1-4)GlcNAc(b1-4)GlcNAc
# How it was run: as §1
# [31] = target: Gal(b1-3)GlcNAc(b1-3)Gal(b1-4)GlcNAc(b1-2)[Gal(b1-3)GlcNAc(b1-3)Gal(b1-4)GlcNAc(b1-6)]Man(a1-6)[Gal(b1-3)GlcNAc(b1-3)Gal(b1-4)GlcNAc(b1-2)Man(a1-3)]Man(b1-4)GlcNAc(b1-4)[Fuc(a1-6)]GlcNAc
# How it was run: as §1
# [32] = target: Gal(b1-3)GlcNAc(b1-3)Gal(b1-4)GlcNAc(b1-3)Gal(b1-4)GlcNAc(b1-2)[Gal(b1-3)GlcNAc(b1-3)Gal(b1-4)GlcNAc(b1-3)Gal(b1-4)GlcNAc(b1-6)]Man(a1-6)[Gal(b1-3)GlcNAc(b1-3)Gal(b1-4)GlcNAc(b1-3)Gal(b1-4)GlcNAc(b1-2)Man(a1-3)]Man(b1-4)GlcNAc(b1-4)[Fuc(a1-6)]GlcNAc
# How it was run: as §1
# [33] = target: Gal(b1-3)GlcNAc(b1-3)Gal(b1-4)GlcNAc(b1-6)[Gal(b1-3)GlcNAc(b1-3)]Gal(b1-4)Glc
# How it was run: as §1
# [34] = target: Gal(b1-3)GlcNAc(b1-3)Gal(b1-4)[Fuc(a1-3)]GlcNAc
# How it was run: as §1
# [35] = target: Gal(b1-3)GlcNAc(b1-3)Gal(b1-4)[Fuc(a1-3)]GlcNAc(b1-6)[Gal(b1-3)GlcNAc(b1-3)]Gal(b1-4)Glc
# How it was run: as §1
# [36] = target: Gal(b1-3)GlcNAc(b1-3)GalNAc
# How it was run: as §1
# [37] = target: Gal(b1-3)GlcNAc(b1-6)Gal(b1-4)GlcNAc
# How it was run: as §1
# [38] = target: Gal(b1-3)GlcNAc(b1-6)GalNAc
# How it was run: as §1
binder,measurement,setting,value
B1,glycan array binding signal (z-score),[1],1.33
same,glycan array binding signal (z-score),[2],0.138
same,glycan array binding signal (z-score),[3],-0.152
same,glycan array binding signal (z-score),[4],-0.025
same,glycan array binding signal (z-score),[5],-0.275
same,glycan array binding signal (z-score),[6],-0.16
same,glycan array binding signal (z-score),[7],-0.439
same,glycan array binding signal (z-score),[8],-0.327
same,glycan array binding signal (z-score),[9],0.291
same,glycan array binding signal (z-score),[10],-0.276
same,glycan array binding signal (z-score),[11],-0.202
same,glycan array binding signal (z-score),[12],-0.13
same,glycan array binding signal (z-score),[13],-0.267
same,glycan array binding signal (z-score),[14],0.022
same,glycan array binding signal (z-score),[15],-0.363
same,glycan array binding signal (z-score),[16],0.103
same,glycan array binding signal (z-score),[17],-0.152
same,glycan array binding signal (z-score),[18],-0.236
same,glycan array binding signal (z-score),[19],-0.27
same,glycan array binding signal (z-score),[20],-0.19
same,glycan array binding signal (z-score),[21],-0.271
same,glycan array binding signal (z-score),[22],-0.388
same,glycan array binding signal (z-score),[23],0.047
same,glycan array binding signal (z-score),[24],-0.008
same,glycan array binding signal (z-score),[25],0.071
same,glycan array binding signal (z-score),[26],-0.089
same,glycan array binding signal (z-score),[27],-0.181
same,glycan array binding signal (z-score),[28],-0.347
same,glycan array binding signal (z-score),[29],-0.299
same,glycan array binding signal (z-score),[30],-0.326
same,glycan array binding signal (z-score),[31],0.616
same,glycan array binding signal (z-score),[32],0.263
same,glycan array binding signal (z-score),[33],-0.501
same,glycan array binding signal (z-score),[34],-0.101
same,glycan array binding signal (z-score),[35],-0.196
same,glycan array binding signal (z-score),[36],-0.41
same,glycan array binding signal (z-score),[37],-0.401
same,glycan array binding signal (z-score),[38],-0.443

# Source: the supplement of paper PMC8728848
